This is an account of results in PubChem BioAssay AID1745853 (National Center for Advancing Translational Sciences (NCATS), 2022).

Some of the results follow. The main result of the screen is listed elsewhere. These columns were measured beside it and carry no call.

Assay in all cases: Primary Screen for Target Class Profiling of Small Molecule Inhibitors of Methyltransferases
In assay [1] the target is Glycine N-methyltransferase (Homo sapiens) (UniProt Q14749). The note with it: purified enzyme, MTase-Glo SAH luminescence; measured here: GNMT inhibition; at 40 µM; stronger effect = lower value. The essentials: (§1)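 Each enzyme was reacted with SAM and its substrate, with compounds tested once at 40 uM; SAH formed was read by MTase-Glo luminescence.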
The target of assay [2] is Guanidinoacetate N-methyltransferase (Homo sapiens) (UniProt Q14353). Conditions: purified enzyme, MTase-Glo SAH luminescence; measured here: GAMT inhibition; at 40 µM; stronger effect = lower value. The method, boiled down: as §1
Assay [3] deals with Histamine N-methyltransferase (Homo sapiens) (UniProt P50135). The note with it: purified enzyme, MTase-Glo SAH luminescence; measured here: HNMT inhibition; at 40 µM; stronger effect = lower value. The essentials:
as §1

Assay [4] addresses Nicotinamide N-methyltransferase (Homo sapiens) (UniProt P40261). The note with it: purified enzyme, MTase-Glo SAH luminescence; measured here: NNMT inhibition; at 40 µM; stronger effect = lower value. The essentials:
as §1

Assay [5] deals with Phenylethanolamine N-methyltransferase (Homo sapiens) (UniProt P11086). The note with it: purified enzyme, MTase-Glo SAH luminescence; measured here: PNMT inhibition; at 40 µM; stronger effect = lower value. The method, boiled down:
as §1
On the % scale 0 is the no-effect control and ±100 the full control effect.

In the case of `CC1CCC(NC(=O)C2(C)Cn3c(nc4ccccc43)C(=O)N2CC(C)c2ccccc2)CC1` (centres undefined), the activity change, negative = inhibition in assay [1] is -5.87%; in assay [2], -7.46%; in assay [3] it was -3.75%; in assay [4] it was -8.77%; in assay [5], -8.63%.

With `CC12CCC(OC3OC(CO)C(O)C(O)C3OC3OC(CO)C(O)C(O)C3O)CC1CCC1C2CCC2(C)/C(=C3/COC(=O)C3)CCC12O` (centres undefined), the activity change, negative = inhibition is -3.97% in assay [1]; -2.58% in assay [2]; -0.982% in assay [3]; -12.2% in assay [4]; 1.74% in assay [5].

For `O=C1CCN(C(=O)c2ccoc2)CCCC(c2nc(-c3cccnc3)no2)CCN1` (centres undefined), the activity change, negative = inhibition in assay [1] is -4.9%; in assay [2], -6.11%; in assay [3], -3.56%; in assay [4], -7.74%; in assay [5], -3.74%.

As to `Cc1cccc(N2CCN(CC(=O)Nc3ccc4[nH]c(=O)[nH]c4c3)CC2C)c1` (centres undefined), the activity change, negative = inhibition in assay [1] is -8.84%; in assay [2], 4.28%; in assay [3], 0.704%; in assay [4], 5.5%; in assay [5] it was -8.18%.

Take `CCOC(=O)c1cc2n(n1)CC(C)(C(=O)NCCOC)N(c1ccc(C)cc1C)C2=O` (centres undefined): the activity change, negative = inhibition in assay [1] came out at 3.45%; in assay [2] it was 0%; in assay [3], 4.83%; in assay [4] it was 5.65%; in assay [5] it was 3.27%.

On to `Cn1cc(C(=O)N2CCCC(c3nnnn3C)C2)cn1` (centres undefined), for which the activity change, negative = inhibition was -3.96% in assay [1]; -7.25% in assay [2]; -1.23% in assay [3]; -8.8% in assay [4]; -4.27% in assay [5].

`CNc1nc(Cc2ccccc2)nc2c1CCNC[C@@H]2C`: the activity change, negative = inhibition in assay [1] was 0.01%; in assay [2], 0.148%; in assay [3], -0.498%; in assay [4], -17.5%; in assay [5], -3.15%.

Consider `O=C(CCc1nnc2n(Cc3ccccc3)c(=O)c3ccccc3n12)N1CCN(c2ccccc2)CC1`, for which the activity change, negative = inhibition is -10.1% in assay [1]; 0.003% in assay [2]; -4.56% in assay [3]; -8.96% in assay [4]; -4.71% in assay [5].

`Cc1nc(CC(=O)N2CCCC(c3ccc(C(=O)O)cc3)C2)cs1` (centres undefined): the activity change, negative = inhibition is -2.15% in assay [1]; -3.75% in assay [2]; 0.066% in assay [3]; -10.1% in assay [4]; 5.77% in assay [5].

As to `O=C1NC(=O)C(c2cnc3ccccn23)=C1c1cn2c3c(cc(F)cc13)CN(C(=O)N1CCCCC1)CC2`, the activity change, negative = inhibition in assay [1] is -41.7%; in assay [2], -10.8%; in assay [3], -25.9%; in assay [4] it was -63%; in assay [5], -27.4%.

For `CCOC(=O)c1cc2n(n1)CC(C)(C(=O)NC1CCCCC1)N(c1cc(C)cc(C)c1)C2=O` (centres undefined), the activity change, negative = inhibition in assay [1] is 5.04%; in assay [2], 0%; in assay [3] it was -6.31%; in assay [4], 9.6%; in assay [5] it was 5.41%.

On to `Cc1cc(CN2CC(Oc3ccc(F)c(F)c3)C2)no1`, for which the activity change, negative = inhibition in assay [1] was -4.81%; in assay [2] it was -3.36%; in assay [3] it was -2.27%; in assay [4], -9.95%; in assay [5], -8.69%.

On to `O=C(CC[C@@H]1CNC(=O)[C@@H]2C[C@H](NC(=O)Nc3ccc(F)cc3F)CN12)NC1CC1`, for which the activity change, negative = inhibition in assay [1] was 0.24%; in assay [2], 0.618%; in assay [3] it was 2.19%; in assay [4], -1.17%; in assay [5], 0.739%.

In the case of `COCCNC(=O)C[C@@H]1C[C@@H](C(C)C)[C@H](CNC(=O)C2CC2)C=C1C`, the activity change, negative = inhibition in assay [1] was -8.53%; in assay [2], -7.27%; in assay [3], -11.4%; in assay [4], -16.5%; in assay [5], -5.85%.

For `O=C(/C=C/C#Cc1cccc(NS(=O)(=O)c2ccccc2)c1)NO`, the activity change, negative = inhibition in assay [1] is -7.67%; in assay [3] it was 13.9%; in assay [4], 2.56%; in assay [5], 10.9%.

Take `C=C1CC2C(C)(CCC(=O)O)C(C(C)(C)O)CCC2(C)C2(C(=O)OC)C(=O)C(C)(O)C(=O)C12C` (centres undefined): the activity change, negative = inhibition in assay [1] is -3.02%; in assay [2], -3.66%; in assay [3], 6.52%; in assay [4], -19%; in assay [5] it was -13.6%.

On to `c1ccc(O[C@H]2COCCN(Cc3cccc4c3OCO4)C2)cc1`, for which the activity change, negative = inhibition in assay [1] was -2.69%; in assay [2] it was 0.698%; in assay [3], 0.298%; in assay [4], 0.395%; in assay [5], 0.371%.

As to `CN(C)C/C=C/C(=O)Nc1ccc(C(=O)Nc2cccc(Nc3ncc(Cl)c(-c4c[nH]c5ccccc45)n3)c2)cc1`, the activity change, negative = inhibition in assay [1] was -42.9%; in assay [2], -1.04%; in assay [3], -2.07%; in assay [4], -56.3%; in assay [5], -1.39%.

In the case of `C#CCNC(=O)C1CCc2nnc(-c3ccc(Cl)cc3Cl)n21` (centres undefined), the activity change, negative = inhibition is -3.51% in assay [1]; -4.67% in assay [2]; -1.79% in assay [3]; -4.29% in assay [4]; -6.93% in assay [5].

`COCCCN1C(=O)c2cc3occc3n2CC1(C)C(=O)NC1CCC(C)CC1` (centres undefined): the activity change, negative = inhibition in assay [1] is -8.16%; in assay [2], 2.98%; in assay [3] it was -3.46%; in assay [4] it was -4%; in assay [5], -8.26%.

As for `COc1nccnc1NC1CCN(C(=O)c2ccco2)CC1`, the activity change, negative = inhibition in assay [1] was -1.01%; in assay [2] it was 0.079%; in assay [3], -0.336%; in assay [4], -7.84%; in assay [5], 9.38%.

For the compound `CCC(C)NC(=O)c1ccc2c(=O)n(C(C)C)c3nn(CC(=O)Nc4ccccc4C)c(=O)n3c2c1` (centres undefined), the activity change, negative = inhibition in assay [1] is 0.12%; in assay [2], 3.7%; in assay [3], 0.563%; in assay [4], -4.16%; in assay [5] it was 0.678%.

Take `COC(=O)c1ccc(O[C@@H]2O[C@H](CO)[C@@H](O)[C@H](O)[C@H]2O)c(OC)c1`: the activity change, negative = inhibition is -0.434% in assay [1]; -5.89% in assay [2]; 8.85% in assay [3]; -18.8% in assay [4]; 2.11% in assay [5].

On to `O=c1c2ccccc2n2c(-c3ccc(F)c(F)c3)nnc2n1Cc1ccccc1`, for which the activity change, negative = inhibition is -4.03% in assay [1]; -0.419% in assay [2]; 4.95% in assay [3]; -6.5% in assay [4]; -4.21% in assay [5].

As for `Cc1cc2[nH]c(=O)[nH]c2cc1S(=O)(=O)N1CCC(Cc2ccccc2)CC1`, the activity change, negative = inhibition in assay [1] was -1.34%; in assay [2] it was 0.78%; in assay [3], -0.114%; in assay [4], -14.9%; in assay [5] it was -5.21%.

`COc1ccc(Cl)cc1NC(=O)Cn1nc2n(CCC(C)C)c(=O)c3ccccc3n2c1=O`: the activity change, negative = inhibition in assay [1] is -3.54%; in assay [2] it was -0.825%; in assay [3] it was 0.498%; in assay [4] it was -6.25%; in assay [5] it was -1.99%.

As to `Cc1ccc(NC(=O)Cn2nc3n(C4CC4)c(=O)c4ccc(C(=O)NC(C)C)cc4n3c2=O)c(C)c1`, the activity change, negative = inhibition is -4.69% in assay [1]; -1.89% in assay [2]; -4.65% in assay [3]; -6.69% in assay [4]; -2.46% in assay [5].

In the case of `Cc1ccc(S(=O)(=O)c2ccc([N+](=O)[O-])o2)cc1`, the activity change, negative = inhibition was -3.2% in assay [1]; -9.95% in assay [2]; -4.28% in assay [3]; -15.8% in assay [4]; -10.8% in assay [5].

On to `OCC(CO)(CO)NCC(O)Cn1c2ccc(Cl)cc2c2cc(Cl)ccc21` (centres undefined), for which the activity change, negative = inhibition was -47.6% in assay [1]; -14.3% in assay [2]; -48.7% in assay [3]; -25.4% in assay [4]; -41% in assay [5].

`CC(C)C(NS(=O)(=O)c1ccc2c(c1)oc(=O)n2C)C(=O)N1CCN(c2ccc(F)cc2)CC1` (centres undefined): the activity change, negative = inhibition is 0.026% in assay [1]; 4.89% in assay [2]; 1.98% in assay [3]; 5.64% in assay [4]; -1.91% in assay [5].
